Laboratory results published in publication PMC12136788.
Some of the results follow.

T1: UNK ZnF1-6 (called full-length) (human, UniProt Q9C0B0 30-357)
T1 sequence: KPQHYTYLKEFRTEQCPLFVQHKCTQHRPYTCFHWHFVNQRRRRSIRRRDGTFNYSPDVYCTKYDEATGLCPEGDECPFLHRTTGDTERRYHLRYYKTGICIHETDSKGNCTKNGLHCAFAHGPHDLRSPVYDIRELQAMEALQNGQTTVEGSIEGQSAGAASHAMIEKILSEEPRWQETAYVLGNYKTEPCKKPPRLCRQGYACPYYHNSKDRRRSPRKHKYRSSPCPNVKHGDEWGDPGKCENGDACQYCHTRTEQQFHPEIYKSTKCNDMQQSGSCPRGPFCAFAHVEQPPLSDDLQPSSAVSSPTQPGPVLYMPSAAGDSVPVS

B1: chr8:79641408:79641533:+|CDS|ENSG00000104435|unk|total|mutant (ssRNA)
RNA: GGGAGUUCUACAGUCCGACGAUCCCAGGCUUUUGAGCUGAUCUUGAAGCCACCAUCUCCUAUCUCAGAAGCCCCACGAACUUCCGCUUCUCCAAAGAAGAAAGACCUGUCCCUGGAGGAGAUCCAGAAGAAACUGGAGGCUGCCAACAGAGGAUUGAGCAUCA
B2: chr12:103777333:103777434:-|3pUTR|ENSG00000111696|msi1|FALSE|unique (ssRNA)
RNA: GGGAGUUCUACAGUCCGACGAUCUCCUGAACAUUUACGGGCUAUGCAUUGGGAACUGCAGGGGCACAGUGAUGGGCAAAGAUUAGCUGCUUCCAGAAGGCUGAUUUCGUGGGCUCCACAAUGGUAAAACGCUGCUGUGAGUGGCAACAGAGGAUUGAGCAUCA
B3: ENSG00000156976:stop:overlap|stop_codon|ENSG00000156976|stop_codon|NA|stop_codon (ssRNA)
RNA: GGGAGUUCUACAGUCCGACGAUCCUUUGGUUAUAAAUUAUGAUCUACCUACCAAUCGUGAAAACUAUAUUCACAGGAGUCGAUAGCAGCAGUUGGUGACGAGAUGGCACUCAGAAACGGCGUUGACGUAAUUUAGGACGUGGACAACAGAGGAUUGAGCAUCA
B4: chr10:71816642:71816777:-|3pUTR|ENSG00000197746|msi1_unk|total|mutant (ssRNA)
RNA: GGGAGUUCUACAGUCCGACGAUCUUGUUUGGGGUUCUGUGGGUUUGGGUGGGAAGAGGGCCAUCUGCCUGAAUGUAACCUGCCCGCUCUCCGAAGGCCCUGCGGGCCUGGCUUGUGUGAGCGUGUGGACAGUGGUGGCCGCGCCAACAGAGGAUUGAGCAUCA
B5: chr18:62902975:62903076:+|CDS|ENSG00000081913|unk|FALSE|unique (ssRNA)
RNA: GGGAGUUCUACAGUCCGACGAUCAGUGGACUUUCUACAGCAUGUUACUCAGCUUGACCUACGAGACAAUAAGCUUGGUGAUCUAGAUGCUAUGAUUUUCAACAACAUUGAAGUUUUACACUGUGAAAGGAAUCAACUGGUCACCAACAGAGGAUUGAGCAUCA
B6: chr16:30610213:30610351:-|CDS|ENSG00000289491|control|control|control (ssRNA)
RNA: GGGAGUUCUACAGUCCGACGAUCCUCCGGUCAAUAAAAUCGAUAGCUGGAAGCUGCCUGUGUUCCAGGCAAAGGCGGUGCGGUAGCAGCGCCGCCAUUUUCCCCGAAGGCAUCUUCCGGUGCCUUUCACCCAAGUUCGGGCAGCAACAGAGGAUUGAGCAUCA
B7: chr12:101746137:101746238:-|3pUTR|ENSG00000111670|msi1|FALSE|unique (ssRNA)
RNA: GGGAGUUCUACAGUCCGACGAUCGGUUAGUAAAUUAUUGCAGGCCACCUGUGUCUUUGUCAUACAUUCUUCUUGCUGUUGUUUAGUUUGUUUUUUUUCAAACAACCCUCUAAAAAUGUAAAAACCAUGUUUAGCUUGCAGCUGCAACAGAGGAUUGAGCAUCA
B8: chr19:41261474:41261596:+|3pUTR|ENSG00000167601|msi1|total|mutant (ssRNA)
RNA: GGGAGUUCUACAGUCCGACGAUCUCUAAAGGUCCACAGGUCCCGACUAUCCGGUGCAAUUUCAAGGUUCUAACCCUAUACUGCCGUAUUCUUUGGGGUGCCCCUCUCCUUCUCCGCUAUCAUUGCUUCCUCCUCCCCAACUGUCAACAGAGGAUUGAGCAUCA
B9: chr10:72011937:72012038:+|3pUTR|ENSG00000122863|msi1|FALSE|unique (ssRNA)
RNA: GGGAGUUCUACAGUCCGACGAUCCAUACACCGCAGGUGGUCACCGAGUUAUUUUCCAAAAGCUGAGGAACAUAAAGCAAAUUUAGGCUUUUGUCCUUCUGCAAUACAUGCACUUGAAAAUAAACAGAAAAGAGAUGUUUAAUACAACAGAGGAUUGAGCAUCA
B10: ENSG00000198589:be:win_2251|CDS|ENSG00000198589|bound_else_gene|NA|bound_elsewhere_windowed (ssRNA)
RNA: GGGAGUUCUACAGUCCGACGAUCGCCCCAAAGAGGAAAGCAGAAGUCAUGCUUGGACAUGGAUUGUUUUCAUUGCUAGCUGAAAGGCUCAUGCUUCAGACAAAUUUAAUCACAAUGACCACAUAUAAUGUGCUGUUUGAGAUUCAACAGAGGAUUGAGCAUCA
B11: ENSG00000107863:be:win_3001|CDS|ENSG00000107863|bound_else_gene|NA|bound_elsewhere_windowed (ssRNA)
RNA: GGGAGUUCUACAGUCCGACGAUCAGUGAGACCAAGAGGAAAAAUGUGUUUCGACUCACCACGUCCGACUGUGAAUGCCUGUUUCAGGCUGAAGACAGAGAUGAUAUGCUAGCUUGGAUCAAGACGAUCCAGGAGAGCAGCAACCAACAGAGGAUUGAGCAUCA
B12: chr22:36281740:36281783:-|3pUTR|ENSG00000100345|msi1_unk|FALSE|overlapping (ssRNA)
RNA: GGGAGUUCUACAGUCCGACGAUCUCUGACAGCCAGAGCGUUAGAGGGGCCAGCGGCCCUCCCAGGCGAUCUUGUGUCUACUCUAGGACUGGGCCCGAGGGUGGUUUACCUGCACCGUUGACUCAGUAUAGUUUAAAAAUCUGCCAACAGAGGAUUGAGCAUCA
B13: chr3:154276180:154276282:-|CDS|ENSG00000174953|unk|FALSE|unique (ssRNA)
RNA: GGGAGUUCUACAGUCCGACGAUCUCAUCCUGUAGACUGGAAUGACACUAAAUCCAGAGACUGUGCAGUACUGUCAGCUAUUAUAGACUUGAUCAAAACACAGGAAAAGGCAACUCCCAGGAACUUUCCGCCACGAUUCCAGGACAACAGAGGAUUGAGCAUCA
B14: ENSG00000107863:be:win_6151|3pUTR|ENSG00000107863|bound_else_gene|NA|bound_elsewhere_windowed (ssRNA)
RNA: GGGAGUUCUACAGUCCGACGAUCAGAAAAUCGCUGGCAUCAGUGUGCAGCAAAUUUGUUCUUUUGGUUUCAUCACUAACAAAAGUGCCUCAUCAUAAAAAUACAGUUGGUUUUUAGGGUGCCAUAUUGUUAAAAUUAGAUAACCAACAGAGGAUUGAGCAUCA
B15: ENSG00000120693:stop:overlap|stop_codon|ENSG00000120693|stop_codon|NA|stop_codon (ssRNA)
RNA: GGGAGUUCUACAGUCCGACGAUCGCAUUAACCCUUACCACUACCGCCGGGUGGAGACUCCAGGUGACUUUGCGGUGAUCCUCUAGGAGCUUUUGGAAUAUUCCAGUUAUCCCGCAGUGUUUGAAAUUCAAGAUGGAAAGACUACAACAGAGGAUUGAGCAUCA
B16: chr12:76025442:76025543:-|3pUTR|ENSG00000139289|msi1|FALSE|unique (ssRNA)
RNA: GGGAGUUCUACAGUCCGACGAUCAUACACCAUCACAUUCAUGAAUUUUUUAGCAUGGUCAGAACUUGUGUAAAUAUGUCUCUUAGAUGAUUUUGGGGAGAUGUGAUUUAUUUUUCAUAUUUUCAAAAUGCAUUUCAUUUCAAACAACAGAGGAUUGAGCAUCA
B17: chr1:25360731:25360844:+|3pUTR|ENSG00000183726|unk|FALSE|unique (ssRNA)
RNA: GGGAGUUCUACAGUCCGACGAUCUUUUUUACUGCUCACUCCCAACCUUUUGUAAUGCCAUUUUCUAAACUUAUUUCUGAGUGUAGUCUCAGCUUAAAGUUGUGUAAUACUAAAAUCACGAGAACACCUAAACAACAACCAAAACAACAGAGGAUUGAGCAUCA
B18: ENSG00000165244:stop:overlap|stop_codon|ENSG00000165244|stop_codon|NA|stop_codon (ssRNA)
RNA: GGGAGUUCUACAGUCCGACGAUCUGCAUGGAGCCCUCGCGCUCAUAGAGCUUGCCAACCUGACUGGGGCGCCACUCCGACAGUAGCUUGGACACUGACUCUUCCACUGUACAAAAGUACUGCCCAGCAUACUUAAAAAGUAGACAACAGAGGAUUGAGCAUCA
B19: chr6:52501983:52502084:-|3pUTR|ENSG00000065308|msi1|FALSE|unique (ssRNA)
RNA: GGGAGUUCUACAGUCCGACGAUCGGCCGCCCUUGUUGAGUGUUCUUUGGAAUUGUCGUUUUUUGAGCACAACUACAGCAUUUUAGACUGCAUGAAACCAUGACUGACUGAGAGUCACUCUCUGGGUAGAUGAUAGGCGCCUUUCAACAGAGGAUUGAGCAUCA
B20: chr12:442458:442559:+|3pUTR|ENSG00000120647|unk|FALSE|unique (ssRNA)
RNA: GGGAGUUCUACAGUCCGACGAUCCCUGAGCAGAGCCUGAAUUACGUUUUUGGGCAAUUUCAUGGUGUUUCACCAGAGGGCGCUAGAGACUCAAACGAAAUGUCCAUCUGGAAAGAUUCGGGAGACACUUUGCCGAGGGGAUGACAACAGAGGAUUGAGCAUCA
B21: chr2:42282796:42282970:+|CDS|ENSG00000143924|unk|total|mutant (ssRNA)
RNA: GGGAGUUCUACAGUCCGACGAUCAUAUGGUUAUCGAGGAAAGGACUGCCGAGCUAAUGUUUACCUUCUUCCGACCGGGAAAACCGUUUAUUUCAUUGCAUCAGCCGCCGUACUAUUUAAUUAUGAGGAGAGAACUCAGCGACACAACAGAGGAUUGAGCAUCA
B22: chr16:21655520:21655610:+|3pUTR|ENSG00000197006|msi1_unk|total|mutant (ssRNA)
RNA: GGGAGUUCUACAGUCCGACGAUCUCUGUGUUCACAAUUACGUGAAGGGAGGACCCUUGGGGACCGCCAUUCUAAAUAUCAUGCCGGAAUUUAAAAAGCCAAAAUACUAAUUAUUUCUUUGCCGUGUGUAAAGGAAUGUUUUUACAACAGAGGAUUGAGCAUCA

These binders were tested against T1, UNK ZnF1-6 (called full-length) (assay: nsRBNS (natural sequence RNA bind-n-seq); RBNS binding buffer (assumed for nsRBNS): 25 mM Tris pH 7.5, 150 mM KCl, 3 mM MgCl2, 0.01% Triton X-100, 500 ug/ml BSA, 20 U/ml SUPERase-In, 4 C; UNK is unkempt and MSI1 is Musashi-1; names of the RNAs are library labels; protein concentration not given here; high values mean tight binding).

Binder	binding signal
B1	0.67 enrichment R
B2	0.832 enrichment R
B3	0.52 enrichment R
B4	0.901 enrichment R
B5	0.286 enrichment R
B6	0.594 enrichment R
B7	1.57 enrichment R
B8	0.827 enrichment R
B9	0.538 enrichment R
B10	0.385 enrichment R
B11	0.516 enrichment R
B12	0.817 enrichment R
B13	0.566 enrichment R
B14	0.619 enrichment R
B15	1.53 enrichment R
B16	0.888 enrichment R
B17	0.614 enrichment R
B18	0.446 enrichment R
B19	0.504 enrichment R
B20	0.538 enrichment R
B21	0.857 enrichment R
B22	0.41 enrichment R
